Measurements: the supplement of paper PMC3334620
The full ranking holds about 33,000 sequences; the median of “E-score (-0.5 to 0.5)” is about -0.053, and the highest 2% start at about 0.37. The list shows a part of the results.

Biological target: Hap1 (UniProt P0CE41)
Assay: PBM E-score (8-mer binding enrichment) (E-score (-0.5 to 0.5)); higher = stronger / more preferred TF binding; most listed sequences are background and not binding sites
Conditions: protein concentration: 200 nM; construct: GST-DNA-binding domain
Summary of the method: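 Universal all-10-mer Agilent arrays, double-stranded by primer extension on fresh or once-stripped slides, were probed with about 100-200 nM GST-tagged yeast transcription factors made by PURExpress. Fluorescent anti-GST detected bound protein, and masliner normalised the scans. E-scores from the Universal PBM Analysis Suite were given to each ungapped eight-base word pooled with its reverse complement.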

UniProt P0CE41, sequence (P0CE41 whole entry): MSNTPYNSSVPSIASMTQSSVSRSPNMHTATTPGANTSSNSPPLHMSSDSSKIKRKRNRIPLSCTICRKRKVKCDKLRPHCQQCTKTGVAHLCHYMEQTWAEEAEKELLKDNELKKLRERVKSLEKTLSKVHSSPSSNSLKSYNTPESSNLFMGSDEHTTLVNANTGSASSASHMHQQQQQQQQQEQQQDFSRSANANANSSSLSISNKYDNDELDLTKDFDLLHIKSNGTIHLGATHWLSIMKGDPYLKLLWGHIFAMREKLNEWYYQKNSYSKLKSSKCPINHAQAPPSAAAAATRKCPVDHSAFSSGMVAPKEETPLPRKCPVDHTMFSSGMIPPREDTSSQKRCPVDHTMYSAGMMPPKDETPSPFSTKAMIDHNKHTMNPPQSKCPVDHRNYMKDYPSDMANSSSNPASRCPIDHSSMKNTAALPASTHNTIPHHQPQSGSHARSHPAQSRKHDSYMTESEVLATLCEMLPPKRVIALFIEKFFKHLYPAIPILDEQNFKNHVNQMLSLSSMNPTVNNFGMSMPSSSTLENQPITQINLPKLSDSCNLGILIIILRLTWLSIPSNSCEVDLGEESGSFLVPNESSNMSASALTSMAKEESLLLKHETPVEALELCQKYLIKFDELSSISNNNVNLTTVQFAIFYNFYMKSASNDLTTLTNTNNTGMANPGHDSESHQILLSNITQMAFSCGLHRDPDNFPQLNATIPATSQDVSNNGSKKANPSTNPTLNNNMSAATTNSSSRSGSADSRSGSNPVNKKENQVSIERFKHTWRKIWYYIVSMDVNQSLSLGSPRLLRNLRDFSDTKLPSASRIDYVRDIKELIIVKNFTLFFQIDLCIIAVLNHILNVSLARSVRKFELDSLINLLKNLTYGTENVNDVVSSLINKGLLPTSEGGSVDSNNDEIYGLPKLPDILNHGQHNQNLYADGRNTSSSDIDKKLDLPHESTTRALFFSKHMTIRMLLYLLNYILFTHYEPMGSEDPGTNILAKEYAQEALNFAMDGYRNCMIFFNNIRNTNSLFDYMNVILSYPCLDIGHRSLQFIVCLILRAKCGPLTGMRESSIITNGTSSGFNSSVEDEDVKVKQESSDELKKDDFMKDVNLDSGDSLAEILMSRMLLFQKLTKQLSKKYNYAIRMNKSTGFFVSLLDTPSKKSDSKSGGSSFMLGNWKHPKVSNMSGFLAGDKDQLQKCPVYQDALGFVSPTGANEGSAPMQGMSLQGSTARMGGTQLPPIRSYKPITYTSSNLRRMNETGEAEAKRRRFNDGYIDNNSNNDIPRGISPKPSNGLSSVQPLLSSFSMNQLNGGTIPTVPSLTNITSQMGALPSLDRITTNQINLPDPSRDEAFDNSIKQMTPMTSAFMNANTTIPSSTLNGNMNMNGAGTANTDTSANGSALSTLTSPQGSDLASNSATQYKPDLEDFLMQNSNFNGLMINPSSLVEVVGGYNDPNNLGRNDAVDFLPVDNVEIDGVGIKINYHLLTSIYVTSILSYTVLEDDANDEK

Sequence	PBM E-score
TATTATCA	-0.0828
CAATGACG	-0.13
ATGTAAGC	-0.0513
GCCTATCA	-0.068
ATGTGATC	-0.0651
CGTATAAA	0.153
GGTCGCAA	0.117
ATCACTTG	-0.229
GCGGGGGA	0.162
CCATCACC	-0.0491
ATATAGGA	-0.0527
CAGCGTAC	0.0764
CTCCTTTC	-0.026
AAGCTTTA	-0.0463
GACCCAAC	-0.0485
CCAAGGCA	-0.0858
ACCGTGTC	0.118
ACACTTCC	0.0685
AATGTCGC	-0.0228
GGGTCGAC	-0.00638
CTCCGGCA	0.371
TCAAATAA	0.0152
ATTTCTCA	-0.121
ATGGGTTC	-0.104
AGGGTATA	0.254

Sequence	PBM E-score
ACTGTAGA	-0.176
CGGGGTAC	0.183
CAGGTCGC	-0.16
ACCTCGGG	0.26
GAGGGTAA	0.0407
ACTCAATG	0.0245
ACGATTCT	0.0345
GTTTTATA	-0.00629
ACAAAACC	-0.00498
GACAGATC	0.12
AACTCCCT	-0.0179
CATTTATC	0.00563
GCATCTAC	-0.147
CTGCTCTC	-0.173
GACGACCC	-0.0528
CGCCGTAC	0.107
ACTCCGAG	0.401
ACTCAGTA	-0.122
GACTCAGC	-0.154
CCACAAGC	-0.141
CAACGCCG	0.264
CCGTGTAA	0.0848
CTACTCAA	-0.143
AAGGCACC	0.00726
GCGGGGCA	0.0851

Sequence	PBM E-score
CAGCTTTC	-0.0461
AACAGAAG	-0.114
GCGGTGAC	-0.0172
TAAGGCCA	0.0187
GCGATTGA	-0.214
CTACGCGC	0.0813
CGAGCAAG	-0.182
ACAGTTCT	-0.0624
TCTGCGAA	-0.214
ACGTGTCA	-0.181
CTACAATA	-0.124
TAACTGCA	-0.275
CGCTCGTA	0.0559
AAGTGAGA	-0.16
GCTACAAC	0.1
TAGCGGGA	0.111
ATCATCAA	-0.116
ATTCTCTC	-0.0218
TCGATGAA	0.0545
CGGTCTCA	0.0992
GTCCCTCA	-0.291
AGTTAAAT	-0.0605
GTCAAGCA	-0.141
TAAGTGGA	-0.0139
AGTCGCTG	-0.213

Sequence	PBM E-score
ATTCAACC	-0.0285
ACAGTAAG	-0.269
ATCTCCAA	-0.0128
CCGGAAGC	0.336
CTAATGGA	0.00426
ACGAGGCT	0.0816
CTATATTC	-0.0182
CCCCGATC	0.35
GGGCATGA	-0.198
AACGAGGT	-0.189
CCTCCGGA	0.418
GTGTTTTA	-0.063
CCGAGCAG	0.282
AACACCAG	-0.173
ATTAACCA	-0.0483
TAGGGGGA	-0.0649
AACTGGTA	-0.108
TTTCAAAA	-0.107
TCAGCAGA	-0.228
AGTACACT	-0.341
GTTCCGAA	0.331
ACCGCTTC	0.0179
CCAGGTGA	-0.3
AGGGGGAC	-0.213
ACCTAACC	0.053

Sequence	PBM E-score
CCAATCTC	0.00791
CCAAATAA	-0.00664
GTATCTTA	0.0377
ATGGTATG	-0.278
ACATGACA	-0.185
AAATCAAG	0.0291
AGGTGCCA	-0.0272
AGATGGAG	-0.177
CTTGATGC	-0.204
ATAATGAT	-0.0511
GAAAAAAC	0.115
CTTTCTCA	-0.165
ATACGGTA	-0.0465
ATACCACA	-0.0956
GCGGTAGC	0.176
GAGTAGGC	0.00602
CACCTGGC	-0.12
ACCCAACC	-0.065
TCGGCAGA	0.277
AAGAACTT	-0.101
GAGACGAA	-0.188
CTTCGTTC	-0.282
CGTGTTCC	0.304
CGAGACCC	0.173
GCGTCTCC	0.0839

Sequence	PBM E-score
AGTAGATG	-0.196
CAGGCCAC	-0.212
AGCTCCGA	0.411
CCGCTAAG	0.263
CGGGCCCG	0.419
CAGACGCG	-0.195
ACCGGGAA	0.35
GGGAGTAA	0.147
GTGACACA	-0.0189
AGGGGTAC	-0.105
CTATTCAA	-0.221
AGCTTGGC	-0.163
ACTCATTG	-0.075
AGCACGCG	-0.00147
AGAGCTGG	-0.00069
GGGGCCAA	-0.122
GACTGTAA	-0.117
GGAGCCCA	-0.138
GCCTTTGA	-0.0978
GTAGTTAA	0.027
ACTTAGGA	-0.349
GCAGGTGA	-0.153
CTCATGTC	-0.0611
AACGGCTT	0.0841
AGCCATGG	-0.349

Sequence	PBM E-score
TACGGCTA	-0.0503
ATCGGTTC	0.338
AGCCTTCC	-0.172
CAGATGAG	-0.299
CTAGGGCC	-0.0734
CCGATCAC	0.215
TAAACCGA	0.278
AGGGCCAT	-0.238
AGCCCTGC	-0.193
GTTCGTCA	-0.122
CGTGGGGA	-0.0906
ATACCCTA	-0.203
AATCTCTA	-0.185
CGTTGCAA	-0.104
GCTAAGAC	-0.0114
CTGTATCC	0.122
CAAGCTCG	0.124
CCGTTGGC	0.218
ATAAACGC	0.193
CACCGCCG	0.159
CAATATGA	-0.0113
CGGACCTC	0.31
GCTATAGA	-0.159
CCGGAGTC	0.356
AGTTTAAC	-0.0331

Sequence	PBM E-score
GATGCGGC	-0.0228
CGAGACTA	0.0364
CGCTTGGC	-0.208
AGTAGACC	-0.137
CACCCCTA	-0.201
CTGCCTGC	-0.26
GTAGCCCA	-0.292
GCAGGGGA	-0.174
AGCCTGGC	-0.173
CGGAACGC	0.182
CGGGGCGA	0.313
AGTACGAT	-0.129
CAGTAGGC	-0.174
AACCCAAG	-0.194
CCGCGCGA	0.188
GTTATATA	-0.0281
TGTACGAA	-0.0743
CTCGAGAC	0.0784
ATCAACTC	-0.17
AAGTTGCA	-0.165
AAGCGGCA	0.0144
GAAGCAAA	-0.178
ACCAACTC	-0.127
ACGCCAGT	-0.11
CTTATACC	0.195

Sequence	PBM E-score
AGTCTAAA	0.0165
CCAGAAAC	-0.117
GGGGCCCC	0.236
CTTCCGAC	0.0707
GTTTCGTA	0.11
CTTGTGGC	-0.311
ATTATAAT	0.176
CACTTAAC	-0.157
ACCTCCGT	0.286
GTACGTTA	0.052
ACAATCAG	-0.171
GGGTCTTA	0.0728
CACGGCAC	-0.0264
CCGCCCGC	0.3
ATTATTGC	0.0837
CCTTGTAA	-0.145
AAGCCTCG	0.0376
GATCAGAC	-0.0881
TAGATTAA	-0.0609
